Reference: paper PMC4336329 (PLoS ONE, 2015)
The campaign covered roughly 310,000 compounds. About 14,000 (4.5%) showed an effect of 50% or more. The effect is printed as a negative number. This is one part of the list.
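Also: peak tail current of the secondary pulse compared with the same well before compound.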

Each molecule was assayed against human ether-à-go-go-related gene (hERG) potassium channel (human, UniProt Q12809) (assay: primary screen, population patch clamp on CHO cells stably expressing hERG).
human ether-à-go-go-related gene (hERG) potassium channel, sequence (Q12809 whole entry, looked up): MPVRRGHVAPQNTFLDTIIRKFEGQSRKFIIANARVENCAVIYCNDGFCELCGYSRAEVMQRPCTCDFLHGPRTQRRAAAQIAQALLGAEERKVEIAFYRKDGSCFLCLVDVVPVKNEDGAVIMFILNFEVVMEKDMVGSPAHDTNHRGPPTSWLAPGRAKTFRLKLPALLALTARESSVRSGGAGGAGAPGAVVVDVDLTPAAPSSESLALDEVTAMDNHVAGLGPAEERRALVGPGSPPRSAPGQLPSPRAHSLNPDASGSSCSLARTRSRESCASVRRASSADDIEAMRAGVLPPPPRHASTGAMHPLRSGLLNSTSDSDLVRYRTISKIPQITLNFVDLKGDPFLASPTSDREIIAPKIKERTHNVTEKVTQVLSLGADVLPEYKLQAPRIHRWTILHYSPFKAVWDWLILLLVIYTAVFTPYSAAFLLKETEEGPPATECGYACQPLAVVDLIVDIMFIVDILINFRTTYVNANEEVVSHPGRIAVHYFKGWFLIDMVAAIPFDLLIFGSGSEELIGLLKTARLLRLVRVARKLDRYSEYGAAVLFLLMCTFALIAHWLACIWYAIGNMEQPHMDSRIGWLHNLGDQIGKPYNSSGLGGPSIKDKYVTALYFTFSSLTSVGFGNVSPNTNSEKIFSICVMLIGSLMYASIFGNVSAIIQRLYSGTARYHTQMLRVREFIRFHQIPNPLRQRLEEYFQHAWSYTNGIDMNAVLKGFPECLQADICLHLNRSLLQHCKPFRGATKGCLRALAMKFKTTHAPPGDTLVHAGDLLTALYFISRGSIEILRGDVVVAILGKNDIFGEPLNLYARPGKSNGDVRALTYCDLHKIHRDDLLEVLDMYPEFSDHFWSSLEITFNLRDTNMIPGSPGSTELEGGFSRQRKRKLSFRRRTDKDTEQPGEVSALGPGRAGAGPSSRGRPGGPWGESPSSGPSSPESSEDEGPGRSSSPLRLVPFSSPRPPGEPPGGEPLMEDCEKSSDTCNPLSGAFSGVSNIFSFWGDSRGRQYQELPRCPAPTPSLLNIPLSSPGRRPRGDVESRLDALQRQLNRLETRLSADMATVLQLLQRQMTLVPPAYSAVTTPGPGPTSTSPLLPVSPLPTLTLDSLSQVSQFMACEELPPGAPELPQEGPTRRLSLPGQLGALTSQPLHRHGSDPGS
In the case of `COC(=O)Cn1cccc1C(=O)c1ccccc1`, the “hERG current change (%, negative = inhibition) at 10uM” value is reported as -4.73%. With `Cc1ccc(OCC(=O)NS(=O)(=O)c2ccccc2)cc1` the “hERG current change (%, negative = inhibition) at 10uM” value was 18.6%. In the case of `Cc1cccc(CS(=O)(=O)Cc2ccc(C(=O)NCCCN3CCCC3)o2)c1`, the “hERG current change (%, negative = inhibition) at 10uM” value is reported as -10.8%. With `O=C(NCC(=O)N1CCN(C/C=C/c2ccccc2)CC1)c1ccc(OC(F)F)cc1` the “hERG current change (%, negative = inhibition) at 10uM” value was -79.5%. With `COc1cc(C(=O)Nc2nnc(S(=O)(=O)N3CCCCCC3)s2)cc(OC)c1OC` the “hERG current change (%, negative = inhibition) at 10uM” value was -25.9%. For `O=[N+]([O-])c1ccc(CSc2nnc(Cc3ccccc3)o2)cc1`, the “hERG current change (%, negative = inhibition) at 10uM” value was -11.1%. With `CCOC(=O)c1ccc(S(=O)(=O)N2CCN(CCC#N)CC2)cc1` the “hERG current change (%, negative = inhibition) at 10uM” value was -14.7%. `CCOc1ccc(NC(=O)CC2C(=O)N(c3ccccc3)C(=S)N2Cc2ccccn2)cc1` (stereo not shown) was tested, and the “hERG current change (%, negative = inhibition) at 10uM” value was -14.1%. For `COc1cccc(CN(C)C(=O)c2ccc(NS(=O)(=O)c3ccc4[nH]c(=O)[nH]c4c3)cc2)c1OC`, the “hERG current change (%, negative = inhibition) at 10uM” value was 6.28%. With `CCN(CC)S(=O)(=O)c1cc(C(=O)Oc2cccc(-c3cnc4ccccc4n3)c2)ccc1OC` the “hERG current change (%, negative = inhibition) at 10uM” value was 4.19%. With `CCC(CC)C(=O)Nc1ccncc1` the “hERG current change (%, negative = inhibition) at 10uM” value was 23.9%. For `CCOC(=O)c1c(/N=C/C2C(=O)NC(=O)NC2=O)sc2c1CCC2`, the “hERG current change (%, negative = inhibition) at 10uM” value was 24.3%. `Cc1ccc(CS(=O)Cc2ccc(C(=O)N3CCOCC3)o2)cc1` (stereo not shown) was tested, and the “hERG current change (%, negative = inhibition) at 10uM” value was -33.3%. In the case of `CCCn1cc(S(=O)(=O)c2ccc(OC)cc2)c(=O)c2cc(OCC)ccc21`, the “hERG current change (%, negative = inhibition) at 10uM” value is reported as -15.3%. In the case of `OC(Cn1cncn1)(c1ccccc1)c1ccccc1`, the “hERG current change (%, negative = inhibition) at 10uM” value is reported as -6.81%. For `N#Cc1c(-c2ccc(Cl)cc2)nc2n(c1=O)CCCS2`, the “hERG current change (%, negative = inhibition) at 10uM” value was -9.38%. In the case of `CCCCS(=O)CC(CS(=O)CCCC)OC(=O)c1ccccc1` (stereo not shown), the “hERG current change (%, negative = inhibition) at 10uM” value is reported as -35.2%. In the case of `CC(C)(C)c1ccc(-c2noc(CCC(=O)NCC3CCCO3)n2)cc1` (stereo not shown), the “hERG current change (%, negative = inhibition) at 10uM” value is reported as -1.45%. In the case of `COc1ccc(S(=O)(=O)N(Cc2nc3ccccc3c(=O)[nH]2)C2CCCC2)cc1`, the “hERG current change (%, negative = inhibition) at 10uM” value is reported as -32%. `CCCc1nc2oc3c(NCCCN(C)C)ncnc3c2c2c1CCCC2` was tested, and the “hERG current change (%, negative = inhibition) at 10uM” value was -3.16%. For `O=C(c1ccccc1Sc1ccccc1[N+](=O)[O-])N1CCCCC1`, the “hERG current change (%, negative = inhibition) at 10uM” value was -2.95%. With `CCCCc1ccc(CC(=O)O)cc1` the “hERG current change (%, negative = inhibition) at 10uM” value was 15.4%. In the case of `CC(=O)N1CCN(c2ccc(S(=O)(=O)NCCN(C(C)C)C(C)C)cc2[N+](=O)[O-])CC1`, the “hERG current change (%, negative = inhibition) at 10uM” value is reported as 10.3%. In the case of `CCOc1ccc(C(C)=O)cc1COc1ccc(-n2cnnn2)cc1`, the “hERG current change (%, negative = inhibition) at 10uM” value is reported as -31.6%. `CCOC(=O)CNc1ccc(OC(F)(F)F)cc1` was tested, and the “hERG current change (%, negative = inhibition) at 10uM” value was -3.87%. For `COC(=O)c1cn(C(=O)/C=C/c2ccc(OC)c(OC)c2)c2ccccc12`, the “hERG current change (%, negative = inhibition) at 10uM” value was 15.3%. For `Cc1ccc(C(CNS(=O)(=O)c2ccc(Br)cc2)N2CCN(C)CC2)cc1` (stereo not shown), the “hERG current change (%, negative = inhibition) at 10uM” value was -72.4%. In the case of `COCCCNC(=O)CSc1nc2c(sc(=S)n2-c2cc(Cl)ccc2OC)c(=O)[nH]1`, the “hERG current change (%, negative = inhibition) at 10uM” value is reported as 7.72%. In the case of `O=C(CNC(=O)c1ccccc1)NCc1ccc(Cl)cc1`, the “hERG current change (%, negative = inhibition) at 10uM” value is reported as 18.8%. In the case of `COc1cc(/C=C/C(=O)OCC(=O)Nc2cccc(Oc3ccccc3)c2)ccc1O`, the “hERG current change (%, negative = inhibition) at 10uM” value is reported as -9.11%. `CC(=O)c1c(C)[nH]c(C(=O)OCC(=O)Nc2cc(S(=O)(=O)N3CCCC3)ccc2Cl)c1C` was tested, and the “hERG current change (%, negative = inhibition) at 10uM” value was 6.16%. In the case of `COc1ccc(CCNC(=O)C2Cc3ccccc3C(=O)O2)cc1` (stereo not shown), the “hERG current change (%, negative = inhibition) at 10uM” value is reported as -1.35%. In the case of `COc1cccc(NC(=O)c2nnn(Cc3ccc(Br)cc3F)c2N)c1`, the “hERG current change (%, negative = inhibition) at 10uM” value is reported as -2.79%. In the case of `CCOc1ccc(S(=O)(=O)N2CCC(C(=O)NC3CC3)CC2)cc1C`, the “hERG current change (%, negative = inhibition) at 10uM” value is reported as -0.852%. For `Cn1c(=O)[nH]c(=O)c2c1nc(Sc1nc3ccccc3s1)n2Cc1ccccc1`, the “hERG current change (%, negative = inhibition) at 10uM” value was -41.5%. `Cc1c(-n2c(O)c(C3=c4ccccc4=NC3=O)sc2=S)c(=O)n(-c2ccccc2)n1C` was tested, and the “hERG current change (%, negative = inhibition) at 10uM” value was 15.3%. `CCOC(=O)C1CCCN(Cc2nc(Cc3ccccc3Cl)no2)C1` (stereo not shown) was tested, and the “hERG current change (%, negative = inhibition) at 10uM” value was -14.1%. For `Cc1cccc2c(=O)cc(C)n(Cc3ccccc3)c12`, the “hERG current change (%, negative = inhibition) at 10uM” value was 18.5%. For `C[C@]1(C(=O)NCc2cc(F)cc(C(F)(F)F)c2)C=C[C@@H](Cc2ccccc2)N1C(=O)c1ccccc1`, the “hERG current change (%, negative = inhibition) at 10uM” value was 5.04%. `COc1ccccc1NC(=O)N1CCN(Cc2ccc3c(c2)OCO3)CC1.O=C(O)C(=O)O` was tested, and the “hERG current change (%, negative = inhibition) at 10uM” value was 13.3%. With `CCSC1=NC(=O)/C(=C2/C=Cc3ccccc3N2CC)S1` the “hERG current change (%, negative = inhibition) at 10uM” value was 8.33%. With `COc1cc(OC)cc(-c2c(-c3cccs3)c3cc(-c4ccc5c(c4)OCCO5)ccc3n2C)c1` the “hERG current change (%, negative = inhibition) at 10uM” value was 21.9%. In the case of `COC(=O)COc1ccccc1/C=C1/NC(=O)NC1=O`, the “hERG current change (%, negative = inhibition) at 10uM” value is reported as 5.2%.
